Measurements from article PMC4336329 (PLoS ONE, 2015).
Screen size: about 310,000 compounds; about 14,000 (4.5%) showed an effect of 50% or more. Effects have a minus sign here. The list shows a part of the results.

biological target: human ether-à-go-go-related gene (hERG) potassium channel (human, UniProt Q12809); assay: primary screen, population patch clamp on CHO cells stably expressing hERG
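Also: peak tail current of the secondary pulse compared with the same well before compound.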

human ether-à-go-go-related gene (hERG) potassium channel, sequence (Q12809 whole entry, looked up): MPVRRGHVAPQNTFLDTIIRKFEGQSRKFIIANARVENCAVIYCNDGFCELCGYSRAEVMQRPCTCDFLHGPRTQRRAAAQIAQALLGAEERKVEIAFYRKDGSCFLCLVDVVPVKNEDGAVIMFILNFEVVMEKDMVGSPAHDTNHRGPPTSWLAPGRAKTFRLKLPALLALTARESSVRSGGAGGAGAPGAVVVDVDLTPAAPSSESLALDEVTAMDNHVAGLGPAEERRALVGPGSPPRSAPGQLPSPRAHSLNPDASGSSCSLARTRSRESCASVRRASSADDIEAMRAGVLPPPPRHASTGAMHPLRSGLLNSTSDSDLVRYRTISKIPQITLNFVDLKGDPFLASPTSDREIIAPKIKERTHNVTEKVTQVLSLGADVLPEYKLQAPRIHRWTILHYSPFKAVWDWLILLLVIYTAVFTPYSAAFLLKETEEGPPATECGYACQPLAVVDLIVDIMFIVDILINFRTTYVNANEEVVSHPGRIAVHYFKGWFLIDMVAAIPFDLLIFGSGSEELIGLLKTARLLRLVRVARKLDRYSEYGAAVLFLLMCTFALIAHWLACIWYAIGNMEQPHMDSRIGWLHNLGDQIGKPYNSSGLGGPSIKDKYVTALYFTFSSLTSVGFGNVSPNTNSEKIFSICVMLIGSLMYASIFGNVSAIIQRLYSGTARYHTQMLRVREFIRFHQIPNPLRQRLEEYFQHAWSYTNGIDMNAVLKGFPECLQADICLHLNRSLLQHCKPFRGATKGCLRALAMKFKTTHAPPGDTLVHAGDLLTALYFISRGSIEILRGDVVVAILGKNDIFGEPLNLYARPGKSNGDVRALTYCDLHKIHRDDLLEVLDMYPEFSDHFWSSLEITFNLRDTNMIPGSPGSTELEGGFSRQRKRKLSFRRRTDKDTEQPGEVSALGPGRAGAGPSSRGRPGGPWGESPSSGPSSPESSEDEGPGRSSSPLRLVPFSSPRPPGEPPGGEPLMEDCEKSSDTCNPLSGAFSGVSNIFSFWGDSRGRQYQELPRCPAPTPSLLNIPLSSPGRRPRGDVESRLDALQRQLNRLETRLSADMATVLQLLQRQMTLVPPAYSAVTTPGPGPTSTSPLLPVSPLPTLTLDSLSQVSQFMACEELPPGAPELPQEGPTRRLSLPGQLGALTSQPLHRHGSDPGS

Q: Which “hERG current change (%, negative = inhibition) at 10uM” value does the source give for CC(C)(CO)NCC#Cc1ccccc1.Cl here?
A: 10%

Q: For COc1cc(NC2CCCCC2O)c2nc(-c3ccc(Cl)cc3)ccc2c1 (centres unmarked), which “hERG current change (%, negative = inhibition) at 10uM” value is on record?
A: 5.62%

Q: With Cc1c(CN(C)C(=O)c2nn(C)cc2[N+](=O)[O-])cnn1C as the compound, how does the “hERG current change (%, negative = inhibition) at 10uM” value read?
A: 8.63%

Q: With Oc1ccc(C2Nc3cccc4cccc(c34)N2)cc1 as the compound, how does the “hERG current change (%, negative = inhibition) at 10uM” value read?
A: 12.8%

Q: How did the “hERG current change (%, negative = inhibition) at 10uM” value turn out when C=C(C)CN1C(=O)C2(OCCO2)c2ccccc21 was run?
A: 17.7%

Q: COC(=O)C1=C(C)NC(C)=C(C(=O)OC)C1C1CC=CCC1 (centres unmarked) was tested. Which “hERG current change (%, negative = inhibition) at 10uM” value did it give?
A: 10.4%

Q: Which “hERG current change (%, negative = inhibition) at 10uM” value does the source give for CCc1nnc(NC(=O)CSc2nc(C)cc(C)c2C#N)s1 here?
A: 9.06%

Q: With COc1ccccc1Oc1nc([N+](=O)[O-])nn1CC(N)=O as the compound, how does the “hERG current change (%, negative = inhibition) at 10uM” value read?
A: 35.5%

Q: Cc1ccccc1N=C1NC(=O)/C(=C/c2cccnc2)S1 was tested. Which “hERG current change (%, negative = inhibition) at 10uM” value did it give?
A: 4.08%

Q: Which “hERG current change (%, negative = inhibition) at 10uM” value does the source give for CC(C)C(c1nnnn1C1CCCC1)N1CCCc2ccccc21 (centres unmarked) here?
A: -9.14%

Q: Which “hERG current change (%, negative = inhibition) at 10uM” value does the source give for Cc1ccc(S(=O)(=O)N2CCN(CC(=O)N/N=C\c3ccc(O)c(O)c3)CC2)cc1 here?
A: -8.76%

Q: With CCOC(=O)N1CCN(C(=O)C(CC)n2nc(C)c3sc4ccccc4c3c2=O)CC1 (centres unmarked) as the compound, how does the “hERG current change (%, negative = inhibition) at 10uM” value read?
A: -6.79%

Q: For O=C(NCCNC(=O)c1ccccc1Br)c1ccccc1Br, which “hERG current change (%, negative = inhibition) at 10uM” value is on record?
A: 8.51%

Q: CCCNC(=O)C(=O)NCCC1=CCCCC1 was tested. Which “hERG current change (%, negative = inhibition) at 10uM” value did it give?
A: 6.61%

Q: For O=C(Nc1ccc([N+](=O)[O-])cc1)N1CCc2ccccc2C1, which “hERG current change (%, negative = inhibition) at 10uM” value is on record?
A: -12.5%

Q: How did the “hERG current change (%, negative = inhibition) at 10uM” value turn out when O=C(Cc1cccs1)N1CCN(c2ccc(F)cc2)CC1 was run?
A: -4.82%

Q: With Cc1cc(Sc2ccc([N+](=O)[O-])cn2)ccc1Br as the compound, how does the “hERG current change (%, negative = inhibition) at 10uM” value read?
A: -2.43%

Q: Which “hERG current change (%, negative = inhibition) at 10uM” value does the source give for COc1ccc(C(=O)Nc2ccc(NC(=O)c3cccc(F)c3)cn2)cc1 here?
A: 8.06%

Q: With Cc1ccc(-n2nc3c(c2NC(=O)c2c(-c4ccccc4Cl)noc2C)CS(=O)(=O)C3)c(C)c1 as the compound, how does the “hERG current change (%, negative = inhibition) at 10uM” value read?
A: -10.5%

Q: With CCCCN(C(C)=O)C1CC(=O)N(c2ccc(OCCC)cc2)C1=O (centres unmarked) as the compound, how does the “hERG current change (%, negative = inhibition) at 10uM” value read?
A: 0.99%

Q: How did the “hERG current change (%, negative = inhibition) at 10uM” value turn out when CCC(=O)c1ccc(OCc2ccccc2)c(OC)c1 was run?
A: 16.7%

Q: With CCc1ccc2nc(SCC(=O)NCC3CCCO3)c(C#N)cc2c1 (centres unmarked) as the compound, how does the “hERG current change (%, negative = inhibition) at 10uM” value read?
A: 6.86%

Q: How did the “hERG current change (%, negative = inhibition) at 10uM” value turn out when Cc1ccc(S(=O)(=O)N2CCN(C(=O)CC3CCCC3)CC2)cc1 was run?
A: -8.41%

Q: With COc1ccc2[nH]c(C)c(CCNC(=S)Nc3ccccc3C)c2c1 as the compound, how does the “hERG current change (%, negative = inhibition) at 10uM” value read?
A: 12.9%

Q: Which “hERG current change (%, negative = inhibition) at 10uM” value does the source give for CCOc1cc(C)c(C(C)C)cc1S(=O)(=O)N1CCOCC1 here?
A: -0.0443%

Q: Which “hERG current change (%, negative = inhibition) at 10uM” value does the source give for CCCNC(=O)c1ccc(N2CCC3(CC2)CC(c2cccc(Br)c2)=NO3)c(NC(=O)c2cccc(C)c2)c1 here?
A: 11.7%

Q: How did the “hERG current change (%, negative = inhibition) at 10uM” value turn out when CC(C)(C)c1ccc(C(=O)N/C(=C\c2ccco2)C(=O)Nc2ccccc2C(=O)O)cc1 was run?
A: 24%

Q: Which “hERG current change (%, negative = inhibition) at 10uM” value does the source give for Clc1cccc(Oc2ncc(CN3CCOCC3)s2)c1 here?
A: 0.97%

Q: With Cc1ccc(NC(=O)Cn2cnc3cc([N+](=O)[O-])ccc3c2=O)c(Cl)c1 as the compound, how does the “hERG current change (%, negative = inhibition) at 10uM” value read?
A: 16.4%

Q: With Cc1ccc(C(=O)c2c(C)oc3c2C(=O)C(=O)c2ccccc2-3)cc1 as the compound, how does the “hERG current change (%, negative = inhibition) at 10uM” value read?
A: -2.38%

Q: How did the “hERG current change (%, negative = inhibition) at 10uM” value turn out when CC(C)C[C@H](NC(=O)Nc1ccc(Oc2ccccc2)cc1)C(=O)O was run?
A: 9.65%

Q: How did the “hERG current change (%, negative = inhibition) at 10uM” value turn out when CC(=O)c1cccc(NC(=O)C(C)OC(=O)CNC(=O)c2ccc(C)s2)c1 (centres unmarked) was run?
A: 16.7%

Q: CCc1ccc(C(=O)COC(=O)C(Cc2ccccc2)NC(=O)c2ccc(Cl)cc2)cc1 (centres unmarked) was tested. Which “hERG current change (%, negative = inhibition) at 10uM” value did it give?
A: 7.75%

Q: How did the “hERG current change (%, negative = inhibition) at 10uM” value turn out when C=CCn1c(-c2sc3nc(C)cc(C)c3c2N)n[nH]c1=S was run?
A: 18%

Q: For O=C(NCC(c1cccs1)N1CCOCC1)c1cc(-c2ccccn2)nc2ccccc12 (centres unmarked), which “hERG current change (%, negative = inhibition) at 10uM” value is on record?
A: -23%

Q: Which “hERG current change (%, negative = inhibition) at 10uM” value does the source give for O=C(O)CC1SC(=O)N(CC(=O)c2ccccc2)C1=O (centres unmarked) here?
A: 5.23%

Q: Which “hERG current change (%, negative = inhibition) at 10uM” value does the source give for CCn1c(=O)cc(OCC(=O)NCc2ccco2)c2ccccc21 here?
A: 0.766%

Q: How did the “hERG current change (%, negative = inhibition) at 10uM” value turn out when C/C(=N\NC(=O)CNC(=O)C1COc2ccccc2O1)c1ccc(Cl)cc1 (centres unmarked) was run?
A: -17.6%

Q: With COC(=O)c1ccc(S(=O)(=O)NCCc2ccccc2OC)n1C as the compound, how does the “hERG current change (%, negative = inhibition) at 10uM” value read?
A: -7.34%

Q: How did the “hERG current change (%, negative = inhibition) at 10uM” value turn out when Br.N=C1c2ccccc2CN1c1ccc(N2CCOCC2)c(S(=O)(=O)Nc2ccc(Cl)cc2)c1 was run?
A: -81%

Q: For CC(=O)c1cccc(NC(=O)Oc2ccccc2)c1, which “hERG current change (%, negative = inhibition) at 10uM” value is on record?
A: 11.6%

Q: For COc1ccc(C(=O)Oc2ccc(/C=N/NC(=O)c3cccnc3)cc2OC)cc1, which “hERG current change (%, negative = inhibition) at 10uM” value is on record?
A: 0.369%

Q: With O=C(Cc1cccs1)NNC(=O)c1ccc(F)cc1 as the compound, how does the “hERG current change (%, negative = inhibition) at 10uM” value read?
A: 3.91%

Q: How did the “hERG current change (%, negative = inhibition) at 10uM” value turn out when COc1ccc(Cl)cc1C(=O)N1CCN(Cc2ccc3c(c2)OCO3)CC1 was run?
A: -20.5%
